Measured values: paper PMC4336329 (PLoS ONE, 2015)
Hit rate of the full screen: of about 310,000 compounds, about 2,200 (0.71%) showed an effect of 50% or more. Effects have a minus sign here. The list shows a part of the results.

target: human ether-à-go-go-related gene (hERG) potassium channel (human, UniProt Q12809); experiment: primary screen, population patch clamp on CHO cells stably expressing hERG
Sequence (Q12809 whole entry, looked up): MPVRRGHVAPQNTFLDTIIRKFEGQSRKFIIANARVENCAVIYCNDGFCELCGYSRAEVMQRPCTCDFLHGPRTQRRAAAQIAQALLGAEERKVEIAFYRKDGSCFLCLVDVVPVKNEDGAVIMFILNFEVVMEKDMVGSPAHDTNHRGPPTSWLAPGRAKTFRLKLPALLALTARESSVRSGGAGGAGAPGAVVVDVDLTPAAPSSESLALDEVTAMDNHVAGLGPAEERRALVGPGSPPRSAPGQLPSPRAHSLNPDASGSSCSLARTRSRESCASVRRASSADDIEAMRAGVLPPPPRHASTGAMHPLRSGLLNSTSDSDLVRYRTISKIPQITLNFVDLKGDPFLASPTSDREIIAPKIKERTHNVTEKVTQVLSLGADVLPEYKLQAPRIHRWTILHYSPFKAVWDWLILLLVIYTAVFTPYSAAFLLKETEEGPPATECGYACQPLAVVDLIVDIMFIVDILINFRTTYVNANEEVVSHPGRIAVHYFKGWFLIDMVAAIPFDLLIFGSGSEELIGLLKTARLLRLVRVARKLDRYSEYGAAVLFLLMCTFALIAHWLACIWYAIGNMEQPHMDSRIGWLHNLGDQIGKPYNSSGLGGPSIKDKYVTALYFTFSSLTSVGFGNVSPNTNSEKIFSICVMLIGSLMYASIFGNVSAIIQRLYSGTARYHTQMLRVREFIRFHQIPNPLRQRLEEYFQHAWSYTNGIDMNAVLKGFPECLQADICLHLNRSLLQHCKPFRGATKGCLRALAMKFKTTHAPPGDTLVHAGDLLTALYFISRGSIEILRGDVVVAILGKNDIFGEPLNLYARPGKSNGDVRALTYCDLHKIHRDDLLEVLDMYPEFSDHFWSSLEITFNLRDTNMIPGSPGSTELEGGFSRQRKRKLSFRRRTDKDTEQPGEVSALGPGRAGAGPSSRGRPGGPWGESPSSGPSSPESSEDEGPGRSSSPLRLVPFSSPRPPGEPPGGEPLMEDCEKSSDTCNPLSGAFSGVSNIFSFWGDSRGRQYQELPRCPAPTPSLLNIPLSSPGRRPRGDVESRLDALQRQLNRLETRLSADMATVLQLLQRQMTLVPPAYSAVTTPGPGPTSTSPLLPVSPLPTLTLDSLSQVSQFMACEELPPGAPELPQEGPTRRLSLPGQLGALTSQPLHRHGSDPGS

Row | SMILES | hERG current change (%, negative = inhibition) at 1uM
1 | Brc1ccc(-c2n(-c3ccccn3)c3ccccc3[n+]2-c2ccccn2)cc1.[I-] | 12.1%
2 | CC1CCCN(Cc2cccc(Oc3ccccc3)c2)C1 (stereo not shown) | -4.81%
3 | CCn1cc(CNCc2cn[nH]c2-c2cc3ccccc3o2)cn1 | 13.7%
4 | COc1ccc(N2CCN(C(=O)COC(=O)Cc3cccc(OC)c3)CC2)cc1 | 9.34%
5 | O=C(CC(=O)c1ccccc1O)c1cccc(F)c1 | -2.07%
6 | O=C(COc1ccccc1Cl)NNC(=O)c1ccc2nc[nH]c2c1 | 6.13%
7 | CCOC(=O)[C@H]1[C@H]2COc3ccc(Cl)cc3[C@@H]2N2C(=O)CN(Cc3ccc(C)cc3)C(=O)[C@@]12C | 13.4%
8 | COC(=O)NNC(=O)c1ccccc1OC | 14.9%
9 | COc1ccc(/C(C)=N\NC(=O)c2ccc3c(c2)OCO3)cc1OC | -7.69%
10 | Nc1n[nH]c2cccc(Cl)c12 | 13.7%
11 | CC(C)CCC1=NN(C(=O)c2ccco2)C(O)(C(F)(F)F)C1 (stereo not shown) | 9.45%
12 | CC(C)CNC(=O)C(=O)NCc1ccccn1 | 15.3%
13 | O=C(O)/C=C\C(=O)O.OCCN1CCN(C2CCC(c3ccc(F)cc3)c3ccc(F)cc32)CC1 (stereo not shown) | -15.5%
14 | CC(=O)Nc1ccc(NC(=O)Cc2sc(-c3cccnc3)nc2-c2ccc(C)cc2)cc1 | -4.89%
15 | CCc1nc(SCC(=O)Nc2ccccc2OC)n[nH]1 | 15.3%
16 | CCn1nc(C(=O)NNC(=O)COc2ccc(OC)cc2)c2ccccc2c1=O | 4.42%
17 | Cc1nn(-c2ccccc2Cl)c(Cl)c1/C=C(\C#N)C(N)=O | 8.67%
18 | COC(=O)c1cc(S(=O)(=O)Nc2ccc(C)c(F)c2)c[nH]1 | -3.6%
19 | O=C(NCc1ccncc1)c1cc2ccccc2nc1Cl | 7.01%
20 | Nc1cc(=O)[nH]c(SCC(=O)Nc2ccc([N+](=O)[O-])cc2)n1 | 7.83%
21 | CCOc1ccc(NC(=O)CC(NC(C)=O)c2ccccc2)cc1S(=O)(=O)N1CCCC1 (stereo not shown) | 7.96%
22 | CC1=NN(c2ccccc2)C(=O)C1/C=C1/C(=O)NC(=O)N(c2cc(C)cc(C)c2)C1=O (stereo not shown) | 12.8%

Row | SMILES | hERG current change (%, negative = inhibition) at 1uM
23 | Cc1cc(NC(=O)C2CC(=O)N(c3ccccc3)C2)no1 (stereo not shown) | 10.7%
24 | COCCOC(=O)C1=C(C)NC(=O)NC1c1cccc(F)c1 (stereo not shown) | 13.7%
25 | Fc1ccc(CNC(=S)NCc2ccc(F)cc2)cc1 | 4.95%
26 | O/N=C/c1cc(Br)ccc1OCc1ccc(F)cc1 | 7.49%
27 | CCOC(=O)CP(=O)(c1ccccc1)c1ccccc1 | 6.47%
28 | Cc1ccc(NC(=O)CN(C)C(=O)COc2ccc(C(=O)c3ccc(F)cc3)cc2)cc1 | 10%
29 | CCOC(=O)N1CCC(NC(=O)CCc2nc(C3=CCN(C)CC3)no2)CC1 | 5.15%
30 | Cc1cc(C)n2ncc(C(=O)Nc3ccc4c(c3)OCO4)c2n1 | 13.7%
31 | Nc1ccc(C(=O)OCC(=O)N2CCOCC2)cc1[N+](=O)[O-] | 14.8%
32 | CCCn1c(CCC(=O)O)ccc1-c1ccccc1 | 14.5%
33 | O=C(CCS(=O)(=O)c1cccc2nonc12)Nc1cccc2c1CCCC2 | -8.84%
34 | Cc1ccc(-c2ccc(=O)n(Cc3ccc(F)cc3)n2)cc1 | 5.66%
35 | O=C(CNC(=O)c1cccc(F)c1)N/N=C/c1cc(Br)ccc1OCc1ccccc1 | 7.27%
36 | CC(=O)C1C(c2ccncc2)NC(=O)NC1(O)C(F)(F)F (stereo not shown) | -6.59%
37 | CC1(C)Cc2c(sc(NC(=O)C(=O)NCC3CCCO3)c2C(N)=O)CO1 (stereo not shown) | 15.3%
38 | Cc1cc(C)nc(NS(=O)(=O)c2ccc(NC(=O)C3CC3)cc2)n1 | 16%
39 | CC(C(=O)Nc1c2c(cc3c1CCC3)CCC2)N1CCCC1.Cl.O (stereo not shown) | -2.04%
40 | COc1cccc(C(=O)NCC(C)(C)SCc2ccc(F)cc2)c1 | 6.06%
41 | O=C(NNC(=O)c1ccccc1-n1cccc1)c1ccc(Cl)nc1 | 9.06%
42 | O=C(N/N=C/c1cccnc1)c1ccccc1OCc1cccc(Br)c1 | -0.742%
43 | O=C(Cc1ccc(Cl)cc1)c1c[nH]c(C(=O)NCCCn2ccnc2)c1 | -18.5%
44 | O=C(OCc1nc2ccccc2s1)c1cnccn1 | 1.36%

Row | SMILES | hERG current change (%, negative = inhibition) at 1uM
45 | COc1ccc(/C=C2\SC(=O)N(CC(=O)NC3CCS(=O)(=O)C3)C2=O)cc1 (stereo not shown) | 14.4%
46 | Cc1nc2ccc(S(=O)(=O)N3CCCCC3)cc2s1 | 9.53%
47 | N#CCC(=O)Nc1ccc(C(=O)NCCC(c2ccccc2)c2ccccc2)cc1 | 17.5%
48 | Cc1nnc(SCC2=C(C(=O)O)N3C(=O)C(NC(=O)Cn4nc(C)c(Cl)c4C)C3SC2)s1 (stereo not shown) | 12.2%
49 | CCCCCC1CCC(c2ccc(/C(N)=N/O)cc2)CC1 (stereo not shown) | 15.2%
50 | CCC(=O)Nc1nc(N)n(-c2ccccc2)n1 | 16.3%
51 | COc1ccc(NC(=O)CN(C)C(=O)CNC(=O)C2CCCCC2)cc1 | 11.3%
52 | COc1ccccc1NC(=O)C1CCCN1S(=O)(=O)c1ccc(Cl)cc1 (stereo not shown) | 9.21%
53 | CC(C)c1cc(C(=O)N2CCCC(C(=O)c3ccc4ccccc4c3)C2)on1 (stereo not shown) | 7.35%
54 | CC(=O)Nc1ccc(NC(=O)Cn2cnc3c(nnn3Cc3ccc(F)cc3)c2=O)cc1 | 16.8%
55 | CCCc1cc(=S)n2c([nH]c3ccccc32)c1C#N | 4.04%
56 | O=S(=O)(c1ccc(NC(=S)N/N=C/c2ccc(Oc3ccccc3)cc2)cc1)N1CCOCC1 | 1.74%
57 | CC(Sc1ncnc2c1cnn2-c1ccccc1)C(=O)Nc1ccc(N2CCOCC2)cc1 (stereo not shown) | 12.4%
58 | CCOc1ccccc1C(=O)NCC(=O)NCC(c1ccc(OC)cc1)N1CCOCC1 (stereo not shown) | 0.417%
59 | CC(C)COC(=O)n1c(=O)oc2cc(S(=O)(=O)N3CCCCC3)ccc21 | -1.72%
60 | CCOc1cc(/C=C(\CC(=O)O)c2nc3ccccc3s2)ccc1OC | 19.5%
61 | Cc1cc(C)n2nc(C(=O)OCC(=O)Nc3ccc4c(c3)OCCO4)nc2n1 | 13.2%
62 | CCn1ccnc1CN1CCN(CCC(C)C)C(CCO)C1 (stereo not shown) | 6.84%
63 | Nc1nc(SCn2nnc3ccccc3c2=O)n[nH]1 | 1.98%
64 | CCOC(=O)C1(Cc2ccc(Cl)cc2)CCN(C(=O)C2=NNC(=O)CC2)CC1 | -61.2%
65 | O=C(CSc1nnc(NC(=O)C2CC2)s1)Nc1ccc2c(c1)OCCO2 | 16.3%
66 | COc1cc(O)c(C(CCN2CCN(c3ccccc3)CC2)c2ccc3c(c2)OCO3)c(OC)c1 (stereo not shown) | 5.8%

Row | SMILES | hERG current change (%, negative = inhibition) at 1uM
67 | CCn1c(O)c(N=Nc2cccc(S(=O)(=O)N3CCOCC3)c2)c(=O)n(CC)c1=S | -0.747%
68 | COc1cccc(C(=O)CN2C(=O)C(C)(C)Oc3ccc(C(=O)N4CCCCCC4)cc32)c1 | 14.6%
69 | CC(C)C[C@@H](CO)N1CCN(CCc2ccccc2)CCC1=O | -4.92%
70 | COCC(=O)Nc1ccccc1C(=O)NC(C)C | 13.4%
71 | COc1ccc(-c2nc(CSCC(=O)N3CCN(c4cccc(C)c4)C(C)C3)c(C)o2)cc1OC (stereo not shown) | -6.85%
72 | Cc1c(O)ccc(C(=O)CN2CC(C)OC(C)C2)c1O (stereo not shown) | 14.7%
73 | O=C(c1ccc(COc2ccccc2)o1)N1CCN(S(=O)(=O)c2ccccc2Cl)CC1 | 2.15%
74 | O=C(CSc1nnc(CNc2ccc(F)cc2)n1Cc1ccccc1)NCc1ccccc1 | 14.1%
75 | S=C(NCc1cccs1)Nc1cc(Cl)cc(Cl)c1 | 11%
76 | Cc1[nH]n(-c2ccccc2)c(=O)c1/C=N/N(c1ccccc1)c1ccccc1 | 9.4%
77 | CS(=O)(=O)Nc1ccc(C(=O)NCc2cccnc2)cc1 | 11.6%
78 | Cc1ccc(C)c(OCCC(=O)Nc2ccc(S(=O)(=O)N3CCCC3)cc2)c1 | 13.8%
79 | C/C(=N/O)c1cccc(N2Cc3ccccc3C2)c1 | 9.31%
80 | O=C(c1nc(-c2ccccc2)n(-c2ccccc2)n1)N1CCCCCC1 | -15.4%
81 | O=C(Nc1ccccc1N1CCOCC1)c1ccncc1 | -3.34%
82 | CCC(=O)NC(c1cccs1)c1ccc2cccnc2c1O (stereo not shown) | 10.8%
83 | Cc1cccc(CS(=O)(=O)Cc2ccc(C(=O)NCc3ccccc3)o2)c1 | 14.3%
84 | COc1ccccc1NCCC(=O)OCC(=O)NC1CCCCCC1 | 9.91%
85 | O=C(O)c1ccc(-n2cccc2/C=N\NC(=O)c2cc3cc(Br)ccc3o2)cc1 | 8.42%
86 | C=CCn1c(SCc2c(C)noc2C)nc2sc3c(c2c1=O)CCCC3 | -8.57%
87 | COc1ccc(CCn2c(=N)c(C(=O)NCC3CCCO3)cc3c(=O)n4cccc(C)c4nc32)cc1 (stereo not shown) | -88.1%
88 | COc1cccc(/C=N/NC(=O)c2ccc(N(C)S(=O)(=O)c3ccccc3)cc2)c1OC | 5.91%
